Experimental data reported in paper PMC12820563, “FoxP3 forms a head-to-head dimer in vivo and stabilizes its multimerization on adjacent microsatellites”.
The list shows a part of the results.

What follows are sequences tested against T1, MBP-FoxP1dN (Mus musculus, UniProt P58462 326-579) (assay: PD-seq (MBP pull-down with sequencing); 20 mM Tris-HCl pH 7.5, 100 mM NaCl, 1.5 mM MgCl2, 0.4 uM protein, 0.1 uM dsDNA library, 30 min, room temperature, amylose pull-down; high values mean tight binding). Details: protein: recombinant; tags: His6-MBP; chain copies: 2; dsDNA, one strand shown.
T1 sequence: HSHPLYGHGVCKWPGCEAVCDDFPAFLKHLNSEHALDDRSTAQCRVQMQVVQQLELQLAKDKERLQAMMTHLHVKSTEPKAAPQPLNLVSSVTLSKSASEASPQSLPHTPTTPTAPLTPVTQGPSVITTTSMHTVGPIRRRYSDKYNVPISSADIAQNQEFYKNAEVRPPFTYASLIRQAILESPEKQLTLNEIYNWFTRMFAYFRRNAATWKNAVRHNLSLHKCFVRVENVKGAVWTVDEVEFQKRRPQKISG
Outline: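 Amylose resin was used to capture complexes formed during 30 min at room temperature in Tris pH 7.5 buffer with NaCl and MgCl2 between 0.4 µM His6-MBP-tagged mouse FoxP3 or FoxP1 fragment lacking the N-terminus, expressed in E. coli, and 0.1 µM Klenow-filled double-stranded degenerate DNA library. After three washes, the DNA was released with proteinase K, barcoded by PCR and sequenced on Illumina. Binding is pooled-replicate reads-per-million enrichment, pull-down over input.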

| Sequence | binding signal |
| --- | --- |
| GATGATTGTTCTCCCAGCTGATGAATTCCAGTTCTCGAGTAAACAAATTTTCCTAATCTTTCTGTTCAAGCGCCATCTAC | 0.7 RPM ratio (pull-down/input) |
| GATGATTGTTCTCCCAGCTGATGAATTAACCCCGTCGAGTAAACAAATTTTCCTAATCTTTCTGTTCAAGCGCCATCTAC | 0.828 RPM ratio (pull-down/input) |
| GATGATTGTTCTCCCAGCTGATGAATTATTGGGATCGAGTAAACAAATTTTCCTAATCTTTCTGTTCAAGCGCCATCTAC | 1.2 RPM ratio (pull-down/input) |
| GATGATTGTTCTCCCAGCTGATGAATTCCCCTATTCGAGTAAACAAATTTTCCTAATCTTTCTGTTCAAGCGCCATCTAC | 0.844 RPM ratio (pull-down/input) |
| GATGATTGTTCTCCCAGCTGATGAATTTGGAAAATCGAGTAAACAAATTTTCCTAATCTTTCTGTTCAAGCGCCATCTAC | 1.06 RPM ratio (pull-down/input) |
| GATGATTGTTCTCCCAGCTGATGAATTGATAGGATCGAGTAAACAAATTTTCCTAATCTTTCTGTTCAAGCGCCATCTAC | 0.98 RPM ratio (pull-down/input) |
| GATGATTGTTCTCCCAGCTGATGAATTCTAGGACTCGAGTAAACAAATTTTCCTAATCTTTCTGTTCAAGCGCCATCTAC | 0.793 RPM ratio (pull-down/input) |
| GATGATTGTTCTCCCAGCTGATGAATTATCTCGTTCGAGTAAACAAATTTTCCTAATCTTTCTGTTCAAGCGCCATCTAC | 0.899 RPM ratio (pull-down/input) |
| GATGATTGTTCTCCCAGCTGATGAATTTTGACAATCGAGTAAACAAATTTTCCTAATCTTTCTGTTCAAGCGCCATCTAC | 1.26 RPM ratio (pull-down/input) |
| GATGATTGTTCTCCCAGCTGATGAATTTTAACTTTCGAGTAAACAAATTTTCCTAATCTTTCTGTTCAAGCGCCATCTAC | 0.872 RPM ratio (pull-down/input) |
| GATGATTGTTCTCCCAGCTGATGAATTTGACTGATCGAGTAAACAAATTTTCCTAATCTTTCTGTTCAAGCGCCATCTAC | 0.785 RPM ratio (pull-down/input) |
| GATGATTGTTCTCCCAGCTGATGAATTCGTATTGTCGAGTAAACAAATTTTCCTAATCTTTCTGTTCAAGCGCCATCTAC | 2.07 RPM ratio (pull-down/input) |
| GATGATTGTTCTCCCAGCTGATGAATTTTTCGTTTCGAGTAAACAAATTTTCCTAATCTTTCTGTTCAAGCGCCATCTAC | 1.04 RPM ratio (pull-down/input) |
| GATGATTGTTCTCCCAGCTGATGAATTAAGGTGTTCGAGTAAACAAATTTTCCTAATCTTTCTGTTCAAGCGCCATCTAC | 0.982 RPM ratio (pull-down/input) |
| GATGATTGTTCTCCCAGCTGATGAATTTTCCGACTCGAGTAAACAAATTTTCCTAATCTTTCTGTTCAAGCGCCATCTAC | 0.847 RPM ratio (pull-down/input) |
| GATGATTGTTCTCCCAGCTGATGAATTAGATGATTCGAGTAAACAAATTTTCCTAATCTTTCTGTTCAAGCGCCATCTAC | 1.04 RPM ratio (pull-down/input) |
| GATGATTGTTCTCCCAGCTGATGAATTCGATTCATCGAGTAAACAAATTTTCCTAATCTTTCTGTTCAAGCGCCATCTAC | 0.896 RPM ratio (pull-down/input) |
| GATGATTGTTCTCCCAGCTGATGAATTACATGACTCGAGTAAACAAATTTTCCTAATCTTTCTGTTCAAGCGCCATCTAC | 1.13 RPM ratio (pull-down/input) |
| GATGATTGTTCTCCCAGCTGATGAATTGAGCTCTTCGAGTAAACAAATTTTCCTAATCTTTCTGTTCAAGCGCCATCTAC | 0.833 RPM ratio (pull-down/input) |
| GATGATTGTTCTCCCAGCTGATGAATTACGAAGTTCGAGTAAACAAATTTTCCTAATCTTTCTGTTCAAGCGCCATCTAC | 1.04 RPM ratio (pull-down/input) |
| GATGATTGTTCTCCCAGCTGATGAATTGGAGTCTTCGAGTAAACAAATTTTCCTAATCTTTCTGTTCAAGCGCCATCTAC | 0.806 RPM ratio (pull-down/input) |

| Sequence | binding signal |
| --- | --- |
| GATGATTGTTCTCCCAGCTGATGAATTCATAATCTCGAGTAAACAAATTTTCCTAATCTTTCTGTTCAAGCGCCATCTAC | 0.871 RPM ratio (pull-down/input) |
| GATGATTGTTCTCCCAGCTGATGAATTCGGGACATCGAGTAAACAAATTTTCCTAATCTTTCTGTTCAAGCGCCATCTAC | 0.873 RPM ratio (pull-down/input) |
| GATGATTGTTCTCCCAGCTGATGAATTCGTTATCTCGAGTAAACAAATTTTCCTAATCTTTCTGTTCAAGCGCCATCTAC | 0.923 RPM ratio (pull-down/input) |
| GATGATTGTTCTCCCAGCTGATGAATTATGAATCTCGAGTAAACAAATTTTCCTAATCTTTCTGTTCAAGCGCCATCTAC | 0.948 RPM ratio (pull-down/input) |
| GATGATTGTTCTCCCAGCTGATGAATTGTCATGTTCGAGTAAACAAATTTTCCTAATCTTTCTGTTCAAGCGCCATCTAC | 1.12 RPM ratio (pull-down/input) |
| GATGATTGTTCTCCCAGCTGATGAATTGATAGTTTCGAGTAAACAAATTTTCCTAATCTTTCTGTTCAAGCGCCATCTAC | 0.968 RPM ratio (pull-down/input) |
| GATGATTGTTCTCCCAGCTGATGAATTATATGATTCGAGTAAACAAATTTTCCTAATCTTTCTGTTCAAGCGCCATCTAC | 1.13 RPM ratio (pull-down/input) |
| GATGATTGTTCTCCCAGCTGATGAATTAGTCATGTCGAGTAAACAAATTTTCCTAATCTTTCTGTTCAAGCGCCATCTAC | 0.952 RPM ratio (pull-down/input) |
| GATGATTGTTCTCCCAGCTGATGAATTGAGGCGGTCGAGTAAACAAATTTTCCTAATCTTTCTGTTCAAGCGCCATCTAC | 0.939 RPM ratio (pull-down/input) |
| GATGATTGTTCTCCCAGCTGATGAATTAAGCGGGTCGAGTAAACAAATTTTCCTAATCTTTCTGTTCAAGCGCCATCTAC | 1.03 RPM ratio (pull-down/input) |
| GATGATTGTTCTCCCAGCTGATGAATTGGACCAGTCGAGTAAACAAATTTTCCTAATCTTTCTGTTCAAGCGCCATCTAC | 0.766 RPM ratio (pull-down/input) |
| GATGATTGTTCTCCCAGCTGATGAATTTTCGCGCTCGAGTAAACAAATTTTCCTAATCTTTCTGTTCAAGCGCCATCTAC | 0.844 RPM ratio (pull-down/input) |
| GATGATTGTTCTCCCAGCTGATGAATTCCCACCTTCGAGTAAACAAATTTTCCTAATCTTTCTGTTCAAGCGCCATCTAC | 0.828 RPM ratio (pull-down/input) |
| GATGATTGTTCTCCCAGCTGATGAATTGTACCGTTCGAGTAAACAAATTTTCCTAATCTTTCTGTTCAAGCGCCATCTAC | 1.02 RPM ratio (pull-down/input) |
| GATGATTGTTCTCCCAGCTGATGAATTCAGGCCATCGAGTAAACAAATTTTCCTAATCTTTCTGTTCAAGCGCCATCTAC | 0.92 RPM ratio (pull-down/input) |
| GATGATTGTTCTCCCAGCTGATGAATTGGTGACCTCGAGTAAACAAATTTTCCTAATCTTTCTGTTCAAGCGCCATCTAC | 0.865 RPM ratio (pull-down/input) |
| GATGATTGTTCTCCCAGCTGATGAATTTAACTATTCGAGTAAACAAATTTTCCTAATCTTTCTGTTCAAGCGCCATCTAC | 0.876 RPM ratio (pull-down/input) |
| GATGATTGTTCTCCCAGCTGATGAATTCGCAACATCGAGTAAACAAATTTTCCTAATCTTTCTGTTCAAGCGCCATCTAC | 1.3 RPM ratio (pull-down/input) |
| GATGATTGTTCTCCCAGCTGATGAATTCATCGCATCGAGTAAACAAATTTTCCTAATCTTTCTGTTCAAGCGCCATCTAC | 1.15 RPM ratio (pull-down/input) |
| GATGATTGTTCTCCCAGCTGATGAATTCTAATTCTCGAGTAAACAAATTTTCCTAATCTTTCTGTTCAAGCGCCATCTAC | 0.884 RPM ratio (pull-down/input) |
| GATGATTGTTCTCCCAGCTGATGAATTATGATAGTCGAGTAAACAAATTTTCCTAATCTTTCTGTTCAAGCGCCATCTAC | 0.942 RPM ratio (pull-down/input) |

| Sequence | binding signal |
| --- | --- |
| GATGATTGTTCTCCCAGCTGATGAATTTCCGCGTTCGAGTAAACAAATTTTCCTAATCTTTCTGTTCAAGCGCCATCTAC | 0.837 RPM ratio (pull-down/input) |
| GATGATTGTTCTCCCAGCTGATGAATTATCTCACTCGAGTAAACAAATTTTCCTAATCTTTCTGTTCAAGCGCCATCTAC | 1.03 RPM ratio (pull-down/input) |
| GATGATTGTTCTCCCAGCTGATGAATTCAATTCGTCGAGTAAACAAATTTTCCTAATCTTTCTGTTCAAGCGCCATCTAC | 0.887 RPM ratio (pull-down/input) |
| GATGATTGTTCTCCCAGCTGATGAATTGAGCAGCTCGAGTAAACAAATTTTCCTAATCTTTCTGTTCAAGCGCCATCTAC | 0.812 RPM ratio (pull-down/input) |
| GATGATTGTTCTCCCAGCTGATGAATTCACGGTATCGAGTAAACAAATTTTCCTAATCTTTCTGTTCAAGCGCCATCTAC | 0.867 RPM ratio (pull-down/input) |
| GATGATTGTTCTCCCAGCTGATGAATTTGTTGGTTCGAGTAAACAAATTTTCCTAATCTTTCTGTTCAAGCGCCATCTAC | 2.02 RPM ratio (pull-down/input) |
| GATGATTGTTCTCCCAGCTGATGAATTCTAATGCTCGAGTAAACAAATTTTCCTAATCTTTCTGTTCAAGCGCCATCTAC | 0.962 RPM ratio (pull-down/input) |
| GATGATTGTTCTCCCAGCTGATGAATTGATCGCATCGAGTAAACAAATTTTCCTAATCTTTCTGTTCAAGCGCCATCTAC | 1.26 RPM ratio (pull-down/input) |
| GATGATTGTTCTCCCAGCTGATGAATTATATAATTCGAGTAAACAAATTTTCCTAATCTTTCTGTTCAAGCGCCATCTAC | 1.09 RPM ratio (pull-down/input) |
| GATGATTGTTCTCCCAGCTGATGAATTGCGTATCTCGAGTAAACAAATTTTCCTAATCTTTCTGTTCAAGCGCCATCTAC | 1.12 RPM ratio (pull-down/input) |
| GATGATTGTTCTCCCAGCTGATGAATTATACGGTTCGAGTAAACAAATTTTCCTAATCTTTCTGTTCAAGCGCCATCTAC | 0.951 RPM ratio (pull-down/input) |
| GATGATTGTTCTCCCAGCTGATGAATTGACCTAATCGAGTAAACAAATTTTCCTAATCTTTCTGTTCAAGCGCCATCTAC | 1.14 RPM ratio (pull-down/input) |
| GATGATTGTTCTCCCAGCTGATGAATTGAAGTATTCGAGTAAACAAATTTTCCTAATCTTTCTGTTCAAGCGCCATCTAC | 1.04 RPM ratio (pull-down/input) |
| GATGATTGTTCTCCCAGCTGATGAATTTTGTAACTCGAGTAAACAAATTTTCCTAATCTTTCTGTTCAAGCGCCATCTAC | 1.1 RPM ratio (pull-down/input) |
| GATGATTGTTCTCCCAGCTGATGAATTTCACCCCTCGAGTAAACAAATTTTCCTAATCTTTCTGTTCAAGCGCCATCTAC | 0.863 RPM ratio (pull-down/input) |
| GATGATTGTTCTCCCAGCTGATGAATTTTGAAAGTCGAGTAAACAAATTTTCCTAATCTTTCTGTTCAAGCGCCATCTAC | 0.918 RPM ratio (pull-down/input) |
| GATGATTGTTCTCCCAGCTGATGAATTTTGGTACTCGAGTAAACAAATTTTCCTAATCTTTCTGTTCAAGCGCCATCTAC | 0.964 RPM ratio (pull-down/input) |
| GATGATTGTTCTCCCAGCTGATGAATTAGTCAGGTCGAGTAAACAAATTTTCCTAATCTTTCTGTTCAAGCGCCATCTAC | 0.84 RPM ratio (pull-down/input) |
| GATGATTGTTCTCCCAGCTGATGAATTGGCGTTTTCGAGTAAACAAATTTTCCTAATCTTTCTGTTCAAGCGCCATCTAC | 1.15 RPM ratio (pull-down/input) |
| GATGATTGTTCTCCCAGCTGATGAATTAGGTAAATCGAGTAAACAAATTTTCCTAATCTTTCTGTTCAAGCGCCATCTAC | 1.36 RPM ratio (pull-down/input) |
| GATGATTGTTCTCCCAGCTGATGAATTATCGCCCTCGAGTAAACAAATTTTCCTAATCTTTCTGTTCAAGCGCCATCTAC | 0.859 RPM ratio (pull-down/input) |
